What all share (experiment): glycan array binding signal (z-score within array); higher = stronger binding
Common to all, as to settings: glycan notation: IUPAC condensed, linker removed

For test [1], the target named is Gal(b1-4)GlcNAc(b1-3)Gal(b1-4)GlcNAc(b1-3)Gal(b1-4)GlcNAc(b1-3)Gal(b1-4)GlcNAc(b1-2)Man(a1-3)[Gal(b1-4)GlcNAc(b1-3)Gal(b1-4)GlcNAc(b1-3)Gal(b1-4)GlcNAc(b1-3)Gal(b1-4)GlcNAc(b1-2)Man(a1-6)]Man(b1-4)GlcNAc(b1-4)[Fuc(a1-6)]GlcNAc. The method, boiled down:
(§1)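 Columns mapping to the same glycan were averaged after glycan names were converted to IUPAC-condensed notation. The data come from 3228 arrays in the Consortium for Functional Glycomics database, limited to those with an available protein sequence. Binding is reported as a within-array Z-score averaged across arrays of one protein sequence and across linkers.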

Test [2] has as its target Gal(b1-4)GlcNAc(b1-3)Gal(b1-4)GlcNAc(b1-3)Gal(b1-4)GlcNAc(b1-3)Gal(b1-4)GlcNAc(b1-2)[Gal(b1-4)GlcNAc(b1-3)Gal(b1-4)GlcNAc(b1-3)Gal(b1-4)GlcNAc(b1-3)Gal(b1-4)GlcNAc(b1-6)]Man(a1-6)[Gal(b1-4)GlcNAc(b1-3)Gal(b1-4)GlcNAc(b1-3)Gal(b1-4)GlcNAc(b1-3)Gal(b1-4)GlcNAc(b1-2)Man(a1-3)]Man(b1-4)GlcNAc(b1-4)[Fuc(a1-6)]GlcNAc. The method, boiled down:
as §1

Test [3] addresses Gal(b1-4)GlcNAc(b1-3)Gal(b1-4)GlcNAc(b1-3)Gal(b1-4)GlcNAc(b1-3)Gal(b1-4)GlcNAc(b1-3)Gal(b1-4)GlcNAc(b1-2)Man(a1-3)[Gal(b1-4)GlcNAc(b1-3)Gal(b1-4)GlcNAc(b1-3)Gal(b1-4)GlcNAc(b1-3)Gal(b1-4)GlcNAc(b1-3)Gal(b1-4)GlcNAc(b1-2)Man(a1-6)]Man(b1-4)GlcNAc(b1-4)GlcNAc. The method, boiled down:
as §1

The target of test [4] is Gal(b1-4)GlcNAc(b1-3)Gal(b1-4)GlcNAc(b1-3)Gal(b1-4)GlcNAc(b1-3)Gal(b1-4)GlcNAc(b1-3)Gal(b1-4)GlcNAc(b1-2)Man(a1-3)[Gal(b1-4)GlcNAc(b1-3)Gal(b1-4)GlcNAc(b1-3)Gal(b1-4)GlcNAc(b1-3)Gal(b1-4)GlcNAc(b1-3)Gal(b1-4)GlcNAc(b1-2)Man(a1-6)]Man(b1-4)GlcNAc(b1-4)[Fuc(a1-6)]GlcNAc. The method, boiled down: as §1
Test [5] has as its target Gal(b1-4)GlcNAc(b1-3)Gal(b1-4)GlcNAc(b1-3)Gal(b1-4)GlcNAc(b1-3)Gal(b1-4)GlcNAc(b1-3)Gal(b1-4)GlcNAc(b1-2)[Gal(b1-4)GlcNAc(b1-3)Gal(b1-4)GlcNAc(b1-3)Gal(b1-4)GlcNAc(b1-3)Gal(b1-4)GlcNAc(b1-3)Gal(b1-4)GlcNAc(b1-6)]Man(a1-6)[Gal(b1-4)GlcNAc(b1-3)Gal(b1-4)GlcNAc(b1-3)Gal(b1-4)GlcNAc(b1-3)Gal(b1-4)GlcNAc(b1-3)Gal(b1-4)GlcNAc(b1-2)Man(a1-3)]Man(b1-4)GlcNAc(b1-4)[Fuc(a1-6)]GlcNAc. The method, boiled down:
as §1

For test [6], the target named is Gal(b1-4)GlcNAc(b1-3)Gal(b1-4)GlcNAc(b1-3)Gal(b1-4)GlcNAc(b1-3)Gal(b1-4)GlcNAc(b1-3)Gal(b1-4)GlcNAc(b1-3)Gal(b1-4)GlcNAc(b1-2)Man(a1-3)[Gal(b1-4)GlcNAc(b1-3)Gal(b1-4)GlcNAc(b1-3)Gal(b1-4)GlcNAc(b1-3)Gal(b1-4)GlcNAc(b1-3)Gal(b1-4)GlcNAc(b1-3)Gal(b1-4)GlcNAc(b1-2)Man(a1-6)]Man(b1-4)GlcNAc(b1-4)GlcNAc. The method, boiled down: as §1
In test [7] the target is Gal(b1-4)GlcNAc(b1-3)Gal(b1-4)GlcNAc(b1-3)GalNAc. The method, boiled down: as §1
The target of test [8] is Gal(b1-4)GlcNAc(b1-3)Gal(b1-4)GlcNAc(b1-3)[Gal(b1-4)GlcNAc(b1-3)Gal(b1-4)GlcNAc(b1-6)]GalNAc. An outline of the steps:
as §1

Test [9] addresses Gal(b1-4)GlcNAc(b1-3)Gal(b1-4)GlcNAc(b1-6)[Gal(b1-3)]GalNAc. An outline of the steps: as §1
The target in test [10] is Gal(b1-4)GlcNAc(b1-3)Gal(b1-4)[Fuc(a1-3)]GlcNAc(b1-3)Gal(b1-4)[Fuc(a1-3)]GlcNAc. The method, boiled down: as §1
Test [11] addresses Gal(b1-4)GlcNAc(b1-3)GalNAc. The method, boiled down:
as §1

The target in test [12] is Gal(b1-4)GlcNAc(b1-3)[Fuc(a1-3)GlcNAc(b1-6)]Gal(b1-4)Glc. An outline of the steps: as §1
In test [13] the target is Gal(b1-4)GlcNAc(b1-3)[Gal(b1-4)GlcNAc(b1-6)]Gal(b1-4)GlcNAc. An outline of the steps:
as §1

For test [14], the target named is Gal(b1-4)GlcNAc(b1-3)[GlcNAc(b1-6)]Gal(b1-4)GlcNAc. An outline of the steps: as §1
The target of test [15] is Gal(b1-4)GlcNAc(b1-6)Gal(b1-4)GlcNAc. The method, boiled down:
as §1

Test [16] has as its target Gal(b1-4)GlcNAc(b1-6)GalNAc. The method, boiled down: as §1
Test [17] has as its target Gal(b1-4)GlcNAc(b1-6)[Gal(b1-3)]GalNAc. The method, boiled down:
as §1

Test [18] has as its target Gal(b1-4)GlcNAc(b1-6)[Gal(b1-4)GlcNAc(b1-3)]GalNAc. An outline of the steps:
as §1

A further test has as its target Gal(b1-4)GlcNAc6P. The method, boiled down: as §1
For the next test, the target named is Gal(b1-6)Gal. An outline of the steps:
as §1

The next test has as its target Gal3S(b1-3)GalNAc. An outline of the steps: as §1
The next test deals with Gal3S(b1-3)GlcNAc. An outline of the steps: as §1
For test [19], the target named is Gal3S(b1-3)[Fuc(a1-4)]GlcNAc. An outline of the steps:
as §1

Data on one molecule can be found in the supplement of paper PMC8728848.

The list shows a part of the results.

B1: Als3-2 (Candida albicans) (protein)
chain: KTITGVFNSFNSLTWSNAATYNYKGPGTPTWNAVLGWSLDGTSASPGDTFTLNMPCVFKFTTSQTSVDLTAHGVKYATCQFQAGEEFMTFSTLTCTVSNTLTPSIKALGTVTLPLAFNVGGTGSSVDLEDSKCFTAGTNTVTFNDGGKKISINVDFERSNVDPKGYLTD
Consider B1, for which the “glycan array binding signal (z-score)” value was found to be 1.51 in test [1]; 1.73 in test [2]; 5.24 in test [3]; 3.26 in test [4]; 3.16 in test [5]; 0.031 in [6]. Besides, the “glycan array binding signal (z-score)” value in test [7] was -0.265; in test [8], -0.05; in test [9] it was 0.662; in [10], 0.27; in test [11] it was -0.479; in test [12] it was 0.849. For the same molecule, the “glycan array binding signal (z-score)” value in test [13] is 0.212; in test [14], -0.068; in [15], 1.11; in test [16], -0.031; in [17] it was -0.306; in test [18] it was -0.277. The “glycan array binding signal (z-score)” value with Gal(b1-4)GlcNAc6P is -0.1; with Gal(b1-6)Gal, -0.649; in the test with Gal3S(b1-3)GalNAc it was -0.43; with Gal3S(b1-3)GlcNAc it was -0.371; in test [19] it was 0.605.
